From the supplement of paper PMC11417369
± gives the standard deviation of the averaged measurements. This is one part of the list.

Test system: PfAP2-EXP AP2 domain (GST-tagged)
Test: gcPBM binding intensity (ln(normalized median fluorescence intensity)); higher = stronger DNA binding
In short: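 Each value is the highest Masliner-normalised natural-log median intensity across replicate spots of either orientation of a probe. The probes were primer-extended double-stranded 36-bp intergenic genomic sequences on an Agilent 4 × 180k array, alongside negative controls, exposed for 1 h to GST-tagged P. falciparum DNA-binding domains expressed in E. coli. Bound protein was picked up with Alexa488 anti-GST antibody and scanned at 488 nm.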

Sequence	gcPBM binding intensity (ln)
TATATTTGGAAACACACACACAAAAAAAAAAAAAAA [CACACA_site2474]	8.19 ± 0.43
CACCTGCACGATTGCACACAAATATGTTTTGAAGAT [CACACA_site2103]	8.91 ± 0.042
ACTACATAAAATGACACACACAAACTTTAAAATTTA [CACACA_site3474]	8.41 ± 0.59
ATATTTTATGTAAAGGTGCAAAACAACATTAAAAAA	9.22 ± 0.11
AACACATACAGACACACACACAAAAAAAAAAAAAAA [CACACA_site6322]	8.27 ± 0.49
TAAAACATGTTTTTATATATTATTATTATATTTATA [XGTACX_negctrl_site8]	8.38 ± 0.4
ACCCAATTTTTTAGTACACACATATAAATATATAAA [CACACA_site4944]	8.68 ± 0.17
AAATAACTCATGGGTTGTACTTAAAAAAAAAAAGAT [XGTACX_site4168]	8.49 ± 0.75
AAACCTTTAGAAAATCGTACAAAACATAACCACCTA [XGTACX_site1098]	8.81 ± 0.61
ATTTTTTTTTTTTGTTTTTTCTTACAAATTAAATGA [CACACA_negctrl_site1457]	8.38 ± 0.49
AAACAAAAGTAGAAGGTAGAGTATTTTATATTTAAA [GTGCAC_negctrl_site503]	8.39 ± 0.45
CTCTTGTCATTTTGCACACACACATGGATAGGTTAT [CACACA_site5655]	9.14 ± 0.23
TTTTTTTTTTTTCACGTGCACTATACATATAAGTAA	9.01 ± 0.13
ATATATACATTTCTATGTACATATGTATATATGTAT [XGTACX_site1522]	8.54 ± 0.28
ATAAAAGAAAACAATAGTACTTTAGTTTTTCTTTTT [XGTACX_site5686]	8.36 ± 0.33
TTAATCTAGAGAAATTGTACATTTTATTAACACAAT [XGTACX_site1190]	8.26 ± 0.33
TACCAAAATAGACACACACACAAAATATGTAAATAT [CACACA_site6963]	8.59 ± 0.45
TATAAATAAATTTATACACACACACCCATATATATA [CACACA_site8183]	8.88 ± 0.2
ATACATATATATATATGTACACACATTAATAAAAAA [XGTACX_site6874]	8.6 ± 0.42
TATATTTTAGTTAATGCATGTGTGCATCCATTTAAA [TGCATGCA_site887]	8.42 ± 0.17
AAAAAAAAAAGACACACACACAAATACAAATGGTAA [CACACA_site6906]	8.68 ± 0.37
TAAAATTAGGAAATTGCACACAAAAAAAAACATATT [CACACA_site9349]	8.69 ± 0.46
TTTGTTATATTTAATACACACATATTATAAACCCAT [CACACA_site3716]	8.59 ± 0.42

Sequence	gcPBM binding intensity (ln)
ATAAAGCCATACAATACACACATTTTACATGGCTGT [CACACA_site5756]	8.59 ± 0.48
AGAAGAAAAGAAATATGTACATAAACGTCTGAACTA [XGTACX_site1699]	8.86 ± 0.54
ATAACAAATATGATAGCATGCTACATATTACAACTT [TGCATGCA_site524]	8.86 ± 0.52
TGATTAATAGCAGGTAGTACTATAATAATATAAATA [XGTACX_site2776]	8.61 ± 0.28
GTTCCATATATTACATGTACATATTTTTACATTTAA [XGTACX_site660]	9.31 ± 0.37
TGACATAAATTTAATACACACACAAAGAAAAAAAAA [CACACA_site9354]	8.72 ± 0.45
TTTAAAAAAAAAAAAAAAAATTCTACATGTAATTTA [CACACA_negctrl_site1205]	7.92 ± 0.38
ATATATCACATGAACATTAAAAAAAAAAAAGAGGGG [TGCATGCA_negctrl_site187]	8.48 ± 0.38
GGAACATATGAACTCACACACATTTTCACTTAAATA [CACACA_site3684]	8.52 ± 0.4
ATATCACATTCCACGGTACACACTAATAGAAAAATC [CACACA_site9204]	8.88 ± 0.53
TTTATACAATTAGACACACACAAAAAGTATAAATAT [CACACA_site6637]	8.84 ± 0.55
AATATTTATAAATTTACACACACACCGGTGAACATA [CACACA_site8579]	8.98 ± 0.48
TAAAATGATAAATGAATGTGATCATTTTATAAAATA [CACACA_negctrl_site674]	8.33 ± 0.42
TTTAAACTAGAACAAGTGCAGATATGTATAATAATA	8.6 ± 0.32
TTTTATTTTGGAACGTGTACATATAATTATTTATTG [XGTACX_site8094]	8.61 ± 0.29
ATTTATTTTTATCAAGCATGCATAAAAAATAAATTA [TGCATGCA_site440]	8.88 ± 0.39
AAGAAAAGATATATATATAAATATATATATATATAT [TGCATGCA_negctrl_site353]	9.91 ± 0.27
TATTTTTAGAAAATAAAGAAGGAGAATTGAAAATAT [CACACA_negctrl_site361]	8.62 ± 0.43
AGGTAGTTCTGTATCACACACATATAAATATAAATA [CACACA_site7110]	8.48 ± 0.4
ATATTACTAATTAATGGTACACGTTATAATAAACTA [XGTACX_site7051]	8.53 ± 0.43
GCATAAAATATGATCGCACACTGTTTAAAATACTTA [CACACA_site828]	8.41 ± 0.29
AAAATATATACAAGCAAACACACGTAATATATATTA [CACACA_site2152]	8.73 ± 0.5
ATACCTTCTTCATTCACACATATACGTAAAATGTTC [CACACA_site5657]	9.01 ± 0.48

Sequence	gcPBM binding intensity (ln)
AAGGATTACAAAAAAAGTACAAATGGATTTTTTCCC [XGTACX_site8905]	8.4 ± 0.26
AAAAAAATTCTTGGCGCACACACTTTAAAAATTAAA [CACACA_site597]	8.52 ± 0.17
CTTACAAATAAACAACGTACTTATTCGAATTATGCT [XGTACX_site2431]	8.62 ± 0.58
CATACAGACGAACACACACACATATAAATATAAATA [CACACA_site6443]	8.74 ± 0.55
TATAATAAAATTGGTAGTACATTAATTTATGTATAG [XGTACX_site3059]	8.43 ± 0.29
TATTATTTTTTTTTTTGTACATATATGTATATATAT [XGTACX_site8471]	8.46 ± 0.44
AAATATTATATATATACACACACACCGGCATGCACA [CACACA_site7916]	8.99 ± 0.49
AACCACATGGTGTAATGTACATTACCTTAACAATAA [XGTACX_site3055]	8.88 ± 0.49
AAATGCGCCATGTGTACACATATATATATATATATA [CACACA_site4649]	10.3 ± 0.33
TTAAATAAGTTCTTCACACATATATATATATATATA [CACACA_site4742]	10.2 ± 0.31
TACATATATAAAAATTGTACACTTCATAAGAAAAAA [XGTACX_site4347]	8.68 ± 0.3
AAAATTTTTTAACACTGTACTTGTAATATTAAAACT [XGTACX_site8369]	8.54 ± 0.45
GTTTTAAAATTAAATATTATGGCATAATTCAAGAAA [GTGCAC_negctrl_site721]	8.4 ± 0.33
ATTCCCTTAAGAAACTGTACAAAACTTTCTTCGATT [XGTACX_site775]	8.56 ± 0.54
TATACATAAATTATATGTACTGAAAATACATAATTA [XGTACX_site3626]	8.23 ± 0.26
GTGTGTGTATATATTTGTACATATATTTAAACATAT [XGTACX_site1074]	8.96 ± 0.16
GGTAGGTGGATATATACACACATATATTATAGATAT [CACACA_site7021]	8.56 ± 0.49
ATCGAGAAAAATAAAATAATACAATTTCTTTAAATA [XGTACX_negctrl_site162]	7.97 ± 0.35
CACAGATATATACATACACACATATATACACATATA [CACACA_site6323]	8.58 ± 0.38
AAAAAAAAAAGAACCCGTACATAAATAATATATATA [XGTACX_site164]	8.88 ± 0.27
TTTTTTTTTTCTTAGGTGCAAAAAATAAGTATATAT [GTGCAC_site9394]	8.47 ± 0.071
TTAATTACATGTTATTGTACGTATTTTCTATCTATC [XGTACX_site844]	8.94 ± 0.56
TAAAAAATAAAATAATGTACATATGAATTATATATT [XGTACX_site8398]	8.47 ± 0.45

Sequence	gcPBM binding intensity (ln)
TTTTTTTTGTATTAATGTACATATAACTTTTTTTTT [XGTACX_site7903]	8.48 ± 0.47
AAAAAAAAAAAAGAAACACACACATTTGTATATAAT [CACACA_site8648]	8.52 ± 0.57
GAAACATAAAAATATATTGAAATAGTATCATGGGTA [CACACA_negctrl_site352]	8.58 ± 0.42
TATAGTTATATTAGAAGTACTTCATTTTAACATATT [XGTACX_site7101]	8.42 ± 0.3
TAAACCAAACAATTATGTATAAGATGTATATATATA [GTGCAC_negctrl_site438]	9.33 ± 0.099
AAATTCTTAACCCAACGTACATATAATAAATTCTTA [XGTACX_site8538]	8.5 ± 0.61
CATTATAAGAAACACACACACATATATATATATATA [CACACA_site1051]	10.2 ± 0.47
AAAAAGAAGAATATATGTACACAAAATTTATGAGTT [XGTACX_site8609]	8.71 ± 0.46
AAAAAAAAAAATATATTATTTTACTTGTTTATTTTA [CACACA_negctrl_site1447]	8.03 ± 0.34
GTATGTATATATGTATGTACTTATGTATCATTATTA [XGTACX_site2438]	8.35 ± 0.26
TAATATTTATGTTAATGTACAAAAAAACAAAACAAA [XGTACX_site301]	8.66 ± 0.37
ATAATATATATTAAACGTACATAAAATAATTATGGA [XGTACX_site1670]	8.63 ± 0.29
ATATATATATATCACCGTACTTATATAATAACATGA [XGTACX_site4398]	9.95 ± 0.43
ACAGATATATTTATTTGTACATATCACCAAAATGGA [XGTACX_site5644]	8.37 ± 0.36
ATTTTTATTAAAATATGTACGTATTTTACTCATACA [XGTACX_site5330]	8.68 ± 0.38
ATACAGAAAAAAAACACACACACATAATATACATAC [CACACA_site1933]	8.81 ± 0.52
ATAATATTCGAGTGTGCACACAAACATACATATATA [CACACA_site3396]	9.1 ± 0.42
TTTTTTTTTTATTTTTGTACATATATTTCAGTATTA [XGTACX_site8396]	8.66 ± 0.47
TAATTATTCTATTAAGTGCATATATTTTTAAAAAGA	8.41 ± 0.11
TTAATATAATAAAATCGTACAAATAAAATATAAAAT [XGTACX_site8730]	8.79 ± 0.47
